From PubChem BioAssay AID504333 (National Center for Advancing Translational Sciences (NCATS), 2011)
About 16,000 (4.4%) of roughly 360,000 compounds were called active. This list was built around the results that the source calls inconclusive (neither active nor inactive); the mix of calls is not that of the screen. Calls follow the shape of the dose curve; as a rule, active = well fitted inhibition curve with a large enough effect; inconclusive = small, poorly fitted or top-dose-only effect; inactive = no such curve, though single readings can be large or run the other way. Potencies beside an inconclusive call are fits to weak or partial responses and may not hold up.

biological target: Bromodomain adjacent to zinc finger domain protein 2B (Homo sapiens) (UniProt Q9UIF8); assay: qHTS Assay for Inhibitors of BAZ2B; settings: AlphaScreen BAZ2B-H3K14Ac peptide displacement; series mostly up to 114 µM; also: nearly all actives have a fitted effect of over 60% in size
How it was run: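 Multi-concentration screen (max 110 uM) measuring displacement of acetylated histone H3 peptide from BAZ2B by AlphaScreen, using 50 nM protein, 50 nM peptide and 10 ug/mL streptavidin donor plus Ni-chelate acceptor beads.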
Potency is read from the fitted curve at half-maximal effect; tags tell the direction and shape of the fitted curve.

Chain of UniProt Q9UIF8 (Q9UIF8 whole entry, looked up, the tested form may be a part): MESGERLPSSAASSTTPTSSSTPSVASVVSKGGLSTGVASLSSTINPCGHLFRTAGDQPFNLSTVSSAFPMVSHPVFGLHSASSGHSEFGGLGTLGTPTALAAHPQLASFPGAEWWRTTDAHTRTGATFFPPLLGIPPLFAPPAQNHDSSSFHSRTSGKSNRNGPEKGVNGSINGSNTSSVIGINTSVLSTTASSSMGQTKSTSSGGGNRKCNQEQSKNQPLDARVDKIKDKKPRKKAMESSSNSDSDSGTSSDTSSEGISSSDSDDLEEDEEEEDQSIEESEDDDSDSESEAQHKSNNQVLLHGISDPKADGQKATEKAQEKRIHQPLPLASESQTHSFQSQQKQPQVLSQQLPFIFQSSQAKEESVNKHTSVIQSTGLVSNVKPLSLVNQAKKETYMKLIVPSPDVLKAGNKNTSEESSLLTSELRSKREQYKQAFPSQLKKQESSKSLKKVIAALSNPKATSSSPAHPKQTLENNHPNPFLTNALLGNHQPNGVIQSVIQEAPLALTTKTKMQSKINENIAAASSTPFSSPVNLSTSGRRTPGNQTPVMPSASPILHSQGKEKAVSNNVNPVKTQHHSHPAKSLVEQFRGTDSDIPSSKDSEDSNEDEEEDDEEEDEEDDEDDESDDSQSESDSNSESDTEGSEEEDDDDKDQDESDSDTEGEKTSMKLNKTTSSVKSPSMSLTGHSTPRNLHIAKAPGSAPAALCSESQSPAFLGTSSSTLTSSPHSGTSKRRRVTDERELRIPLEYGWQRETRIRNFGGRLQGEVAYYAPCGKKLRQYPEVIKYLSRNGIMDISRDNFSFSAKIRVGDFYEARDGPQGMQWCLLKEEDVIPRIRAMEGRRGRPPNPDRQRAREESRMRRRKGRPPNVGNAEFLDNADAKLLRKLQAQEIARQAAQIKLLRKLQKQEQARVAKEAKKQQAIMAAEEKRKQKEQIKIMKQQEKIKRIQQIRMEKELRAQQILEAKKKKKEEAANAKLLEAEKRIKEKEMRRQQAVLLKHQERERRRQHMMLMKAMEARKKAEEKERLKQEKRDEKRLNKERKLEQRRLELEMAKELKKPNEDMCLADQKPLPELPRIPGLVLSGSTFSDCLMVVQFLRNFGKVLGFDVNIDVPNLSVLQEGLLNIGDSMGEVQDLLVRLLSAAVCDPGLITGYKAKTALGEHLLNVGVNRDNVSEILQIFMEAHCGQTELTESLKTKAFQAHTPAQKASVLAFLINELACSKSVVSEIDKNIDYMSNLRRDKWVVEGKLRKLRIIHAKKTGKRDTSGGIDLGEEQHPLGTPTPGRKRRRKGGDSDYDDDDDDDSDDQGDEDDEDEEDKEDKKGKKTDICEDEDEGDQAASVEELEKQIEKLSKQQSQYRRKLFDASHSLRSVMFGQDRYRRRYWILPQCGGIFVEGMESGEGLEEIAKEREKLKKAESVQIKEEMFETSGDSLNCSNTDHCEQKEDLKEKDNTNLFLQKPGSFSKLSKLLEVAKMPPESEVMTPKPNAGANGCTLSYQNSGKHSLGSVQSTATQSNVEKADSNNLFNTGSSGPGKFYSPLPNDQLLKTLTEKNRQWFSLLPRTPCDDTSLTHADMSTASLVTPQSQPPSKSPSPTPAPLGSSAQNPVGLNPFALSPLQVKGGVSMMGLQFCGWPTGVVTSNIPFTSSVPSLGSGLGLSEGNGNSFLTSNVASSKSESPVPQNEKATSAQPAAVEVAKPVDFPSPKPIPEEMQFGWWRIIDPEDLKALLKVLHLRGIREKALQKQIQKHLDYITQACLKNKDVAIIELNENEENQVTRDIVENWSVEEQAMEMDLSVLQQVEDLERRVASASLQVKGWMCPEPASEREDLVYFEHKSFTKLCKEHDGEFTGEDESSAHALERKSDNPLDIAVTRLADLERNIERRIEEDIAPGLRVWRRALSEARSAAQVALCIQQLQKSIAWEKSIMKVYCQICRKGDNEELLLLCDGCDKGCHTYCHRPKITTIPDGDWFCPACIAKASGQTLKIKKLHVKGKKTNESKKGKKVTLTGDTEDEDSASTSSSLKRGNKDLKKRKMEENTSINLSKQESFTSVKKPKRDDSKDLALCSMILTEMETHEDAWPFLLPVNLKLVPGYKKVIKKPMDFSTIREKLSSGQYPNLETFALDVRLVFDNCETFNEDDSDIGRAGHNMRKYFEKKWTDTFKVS

CCN1/C(=C/C=C/c2oc3ccc4ccccc4c3[n+]2CC)Oc2ccc3ccccc3c21 was tested. Which Potency did it give?
The Potency was inconclusive: 7.94 µM [inhibitor, full curve, poor fit].

How did the Potency turn out when O=C(CCCc1c[nH]c2ccccc12)Nc1ccc2ccccc2c1 was run?
Its Potency is inconclusive: 44.7 µM [inhibitor, full curve, poor fit].

With CCCCOc1ccc(C(=O)Nc2ccc(C)cc2[N+](=O)[O-])cc1 as the compound, how does the Potency read?
Its Potency is inconclusive: 35.5 µM [inhibitor, partial curve].

For Nc1ccc(C23CC4CC(CC(CO)(C4)C2)C3)cc1, which Potency is on record?
The Potency was inconclusive: 70.8 µM [inhibitor, single point].

Which Potency does the source give for Cc1nc(N)sc1C(=O)N/N=C/c1c[nH]c2ccccc12 here?
The Potency was inconclusive: 50.1 µM [inhibitor, partial curve].

CC(C)N1C(=O)S/C(=C/c2ccccc2OCc2ccc(C(=O)O)cc2)C1=O was tested. Which Potency did it give?
Its Potency is inconclusive: 70.8 µM [inhibitor, single point].

Which Potency does the source give for COc1ccc(/C=N/N2C(=O)C3C4C=CC(C4)C3C2=O)cc1[N+](=O)[O-] (centres undefined) here?
The Potency was inconclusive: 89.1 µM [inhibitor, single point].

Which Potency does the source give for COc1ccc(Cn2c(CO)cnc2SCc2ccccc2C)cc1 here?
The Potency was inconclusive: 44.7 µM [inhibitor, partial curve].

COCCn1c(-c2ccco2)csc1=Nc1cccnc1 was tested. Which Potency did it give?
Its Potency is inconclusive: 89.1 µM [inhibitor, single point].

For COc1cccc(-n2c(=O)c3cc(OC)c(OC)cc3n(CC(=O)Nc3cc(C)[nH]n3)c2=O)c1, which Potency is on record?
Its Potency is active: 50.1 µM.

CC1(CCC(=O)N2CCCC(Nc3ccc(F)cc3)C2)CC1 (centres undefined) was tested. Which Potency did it give?
The Potency was inconclusive: 79.4 µM [inhibitor, single point].

CN(Cc1ccccc1)c1ccc(N2C(=O)CCC2=O)cc1[N+](=O)[O-] was tested. Which Potency did it give?
Its Potency is inconclusive: 70.8 µM [inhibitor, single point].

For O=[N+]([O-])c1ccc(O)c(-c2ccnc3cc(-c4ccccc4)nn23)c1, which Potency is on record?
Its Potency is “inactive”.

With Cn1c(=O)n(C)c2cc(NC(=O)COc3ccc(Cl)cc3)ccc21 as the compound, how does the Potency read?
Its Potency is inconclusive: 79.4 µM [inhibitor, single point].

How did the Potency turn out when COC(=O)N/N=C/c1cn(Cc2ccccc2F)c2ccccc12 was run?
Its Potency is inconclusive: 79.4 µM [inhibitor, single point].

How did the Potency turn out when CCSc1nc(-c2ccccc2)c2cc(Cl)ccc2n1 was run?
Its Potency is “inactive”.

For Cc1ccc(NC(=O)CN2C(=O)N/C(=C/c3cc(C)n(-c4ccc(C(=O)O)cc4)c3C)C2=O)cc1, which Potency is on record?
Its Potency is active: 39.8 µM.

How did the Potency turn out when CC(=O)Nc1ccc(OC(=O)Oc2ccc(NC(C)=O)cc2)cc1 was run?
The Potency was “inactive”.

Which Potency does the source give for COC(=O)c1ccc(CNC(=O)Cn2nnnc2CN(C)C(C)C)cc1 here?
Its Potency is “inactive”.

COc1ccc(C(CC(=O)Nc2ccc(Br)cn2)N2Cc3ccccc3C2=O)cc1 (centres undefined) was tested. Which Potency did it give?
The Potency was “inactive”.

Cc1nn(CC(=O)NCc2ccc(N(C)C)cc2)c(=O)c2nn(-c3ccccc3)c(C)c12 was tested. Which Potency did it give?
The Potency was “inactive”.

For CN(C)CCOCCOc1ccc(Cl)c2ccccc12, which Potency is on record?
Its Potency is active: 50.1 µM.

With O=C(CSc1nc2ccccc2c(=O)[nH]1)N1CCOCC1 as the compound, how does the Potency read?
The Potency was “inactive”.

How did the Potency turn out when N#CCCn1cc(/C=N/NC(N)=S)c(-c2ccc(Br)cc2)n1 was run?
The Potency was inconclusive: 56.2 µM [inhibitor, partial curve].

For NN/C(=C\[N+](=O)[O-])Nc1ccc(Cl)cc1, which Potency is on record?
The Potency was inconclusive: 44.7 µM [inhibitor, partial curve].

O=C(CCc1nnc2ccc(NCc3ccco3)nn12)N1CCN(c2ccccc2F)CC1 was tested. Which Potency did it give?
The Potency was active: 70.8 µM.

Which Potency does the source give for O=C(Nc1ccc(S(=O)(=O)Nc2nccs2)cc1)c1nn(-c2ccccc2)ccc1=O here?
The Potency was inconclusive: 11.2 µM [inhibitor, partial curve].

With COc1ccc(C(=O)NC(=S)Nc2ccc(CN3CCOCC3)cc2)cc1Br as the compound, how does the Potency read?
Its Potency is inconclusive: 25.1 µM [inhibitor, single point].

O=C(CN1C(=O)S/C(=C/c2ccccn2)C1=O)N1CCOCC1 was tested. Which Potency did it give?
The Potency was “inactive”.

CCSc1ccc(C(=O)Nc2cccc(C)n2)cc1[N+](=O)[O-] was tested. Which Potency did it give?
The Potency was inconclusive: 3.55 µM [inhibitor, single point].

With COc1ccc(N2CCN(C(c3cc(OC)ccc3OC)c3nnnn3CC3CCCO3)CC2)cc1 (centres undefined) as the compound, how does the Potency read?
The Potency was active: 50.1 µM.

With COc1ccc(NS(=O)(=O)c2cc(NC(=O)CC(=O)c3ccc([N+](=O)[O-])cc3)ccc2C)cc1 as the compound, how does the Potency read?
The Potency was inconclusive: 79.4 µM [inhibitor, single point].

For N#Cc1cc([N+](=O)[O-])ccc1N1CCN(c2ccccc2O)CC1, which Potency is on record?
The Potency was inconclusive: 39.8 µM [inhibitor, partial curve].

For CCOc1ccc(N=c2scc(-c3ccccc3)n2CCO)cc1, which Potency is on record?
The Potency was active: 8.91 µM.

With CC(=O)c1sc(NC(=O)CCS(=O)(=O)c2ccccc2)nc1C as the compound, how does the Potency read?
Its Potency is “inactive”.

Which Potency does the source give for COc1ccc(NC(=O)CSc2nnc(COc3ccccc3)n2Cc2ccco2)cc1OC here?
Its Potency is inconclusive: 89.1 µM [inhibitor, single point].

How did the Potency turn out when COc1ccc(S(=O)(=O)NC2CCSc3ccccc32)cc1OC (centres undefined) was run?
Its Potency is “inactive”.

Which Potency does the source give for COc1ccc(C)c2sc(N3CCN(C(=O)c4ccco4)CC3)nc12 here?
The Potency was inconclusive: 89.1 µM [inhibitor, single point].

How did the Potency turn out when CCCOC(=O)C1=C(C)N(C)C(=O)NC1c1cc2c(cc1[N+](=O)[O-])OCO2 (centres undefined) was run?
The Potency was inconclusive: 56.2 µM [inhibitor, partial curve].

With Cc1cc2cc(CNC(=O)c3ccc4c(c3)OCO4)ccc2[nH]1 as the compound, how does the Potency read?
The Potency was inconclusive: 79.4 µM [inhibitor, single point].

How did the Potency turn out when Cc1ccccc1CN1C[C@@H]2C[C@@H](c3cn[nH]c3-c3ccc(F)cc3)N3CCC[C@@]23C1=O was run?
The Potency was inconclusive: 89.1 µM [inhibitor, single point].

How did the Potency turn out when Cc1noc(C)c1S(=O)(=O)Nc1ccc(C(=O)N2CCN(c3ccc(Cl)cc3)CC2)cc1 was run?
Its Potency is inconclusive: 50.1 µM [inhibitor, partial curve].

Which Potency does the source give for Nn1c(SCc2c(F)cccc2F)nnc1-c1ccccn1 here?
Its Potency is active: 12.6 µM.

How did the Potency turn out when COC(=O)C(NNc1ccccc1)(NC(=O)c1cccc(F)c1)C(F)(F)F (centres undefined) was run?
Its Potency is inconclusive: 89.1 µM [inhibitor, single point].
